Data as given in the supplement of paper PMC7238544.
Structures can show the parent of a compound that is named as a salt. ± gives the standard deviation of the averaged measurements. This is one part of the list.

Tests used:
Conditions in all cases: priming compound concentration 100 µM
hAMSC donor 1 [1] = assay: Hoechst total cell count ratio vs vehicle control; higher = more cells (less toxicity)
hAMSC donor 2 [2] = assay: as above
hAMSC donor 1 [3] = assay: transgenic luciferase activity (RLU/mg protein) fold change vs vehicle control (ratio); higher = more transgene expression
hAMSC donor 2 [4] = assay: as above
hAMSC donor 1 [5] = assay: transfection efficiency (EGFP+ cells / Hoechst count) fold change vs vehicle control (ratio); hAMSC are human adipose-derived mesenchymal stem cells given an EGFP-luciferase plasmid by lipofection; higher = enhanced transfection
hAMSC donor 2 [6] = assay: as above
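Throughout, for Hoechst total cell count ratio vs vehicle control: compound added 30 min before Lipofectamine 3000 lipoplex delivery, triplicate-well means expressed against DMSO vehicle control wells of the same 96-well plate.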
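Throughout, for transfection efficiency (EGFP+ cells / Hoechst count) fold change vs vehicle control: compounds added 30 min before Lipofectamine 3000 lipoplex transfection, triplicate means relative to DMSO vehicle wells on the same plate, luciferase RLU normalized to BCA total protein.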
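Throughout, for transgenic luciferase activity (RLU/mg protein) fold change vs vehicle control: compounds in DMSO added 30 min before Lipofectamine 3000 transfection of pEGFP-Luc in 96-well plates, values are means of triplicate wells over DMSO vehicle wells on the same plate.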

C[C@](N)(Cc1ccc(O)cc1)C(=O)O [alpha-Methyl-L-tyrosine]
Hoechst total cell count ratio (hAMSC donor 1 [1]): 1.4 ± 0.086
Hoechst total cell count ratio (hAMSC donor 2 [2]): 1.48 ± 0.039
transgenic luciferase activity (hAMSC donor 1 [3]): 0.691 ± 0.15
transgenic luciferase activity (hAMSC donor 2 [4]): 0.669 ± 0.097
transfection efficiency (hAMSC donor 1 [5]): 0.554 ± 0.17
transfection efficiency (hAMSC donor 2 [6]): 0.911 ± 0.044

CCOc1cc(CC(=O)N[C@@H](CC(C)C)c2ccccc2N2CCCCC2)ccc1C(=O)O [Repaglinide]
Hoechst total cell count ratio (hAMSC donor 1 [1]): 1.33 ± 0.18
Hoechst total cell count ratio (hAMSC donor 2 [2]): 1.89 ± 0.035
transgenic luciferase activity (hAMSC donor 1 [3]): 1.58 ± 0.18
transgenic luciferase activity (hAMSC donor 2 [4]): 0.526 ± 0.095
transfection efficiency (hAMSC donor 1 [5]): 0.908 ± 0.22
transfection efficiency (hAMSC donor 2 [6]): 0.421 ± 0.069

Cc1nccn1CC1CCc2c(c3ccccc3n2C)C1=O (centres undefined) [Ondansetron]
Hoechst total cell count ratio (hAMSC donor 1 [1]): 1.47 ± 0.081
Hoechst total cell count ratio (hAMSC donor 2 [2]): 1.19 ± 0.12
transgenic luciferase activity (hAMSC donor 1 [3]): 0.936 ± 0.35
transgenic luciferase activity (hAMSC donor 2 [4]): 0.675 ± 0.33
transfection efficiency (hAMSC donor 1 [5]): 0.833 ± 0.044
transfection efficiency (hAMSC donor 2 [6]): 1.24 ± 0.24

Nc1ncnc2c1ncn2[C@@H]1O[C@H](CO)C[C@@H]1O [3'-Deoxydenosine]
Hoechst total cell count ratio (hAMSC donor 1 [1]): 1.1 ± 0.082
Hoechst total cell count ratio (hAMSC donor 2 [2]): 1.02 ± 0.16
transgenic luciferase activity (hAMSC donor 1 [3]): 1.16 ± 0.19
transgenic luciferase activity (hAMSC donor 2 [4]): 1.45 ± 0.78
transfection efficiency (hAMSC donor 1 [5]): 0.57 ± 0.15
transfection efficiency (hAMSC donor 2 [6]): 0.93 ± 0.11

CN(C)c1ccc(O)c2c1C[C@H]1C[C@H]3[C@H](N(C)C)C(O)=C(C(N)=O)C(=O)[C@@]3(O)C(O)=C1C2=O [Minocycline hydrochloride]
Hoechst total cell count ratio (hAMSC donor 1 [1]): 1.01 ± 0.14
Hoechst total cell count ratio (hAMSC donor 2 [2]): 0.98 ± 0.15
transgenic luciferase activity (hAMSC donor 1 [3]): 1.57 ± 0.42
transgenic luciferase activity (hAMSC donor 2 [4]): 0.759 ± 0.059
transfection efficiency (hAMSC donor 1 [5]): 1.54 ± 0.39
transfection efficiency (hAMSC donor 2 [6]): 1.02 ± 0.12

NC[C@H]1CC[C@H](C(=O)Oc2ccc(CCC(=O)O)cc2)CC1 [Cetraxate hydrochloride]
Hoechst total cell count ratio (hAMSC donor 1 [1]): 1.12 ± 0.085
Hoechst total cell count ratio (hAMSC donor 2 [2]): 1.2 ± 0.025
transgenic luciferase activity (hAMSC donor 1 [3]): 0.506 ± 0.12
transgenic luciferase activity (hAMSC donor 2 [4]): 0.824 ± 0.22
transfection efficiency (hAMSC donor 1 [5]): 0.92 ± 0.2
transfection efficiency (hAMSC donor 2 [6]): 1.07 ± 0.11

O=C1C(CC[S+]([O-])c2ccccc2)C(=O)N(c2ccccc2)N1c1ccccc1 (centres undefined) [Sulfinpyrazone]
Hoechst total cell count ratio (hAMSC donor 1 [1]): 1.06 ± 0.078
Hoechst total cell count ratio (hAMSC donor 2 [2]): 1.16 ± 0.089
transgenic luciferase activity (hAMSC donor 1 [3]): 1.08 ± 0.27
transgenic luciferase activity (hAMSC donor 2 [4]): 0.539 ± 0.23
transfection efficiency (hAMSC donor 1 [5]): 1.46 ± 0.43
transfection efficiency (hAMSC donor 2 [6]): 0.964 ± 0.037

CN(C)CCc1c[nH]c2ccc(C[C@H]3COC(=O)N3)cc12 [Zolmitriptan]
Hoechst total cell count ratio (hAMSC donor 1 [1]): 1.47 ± 0.1
Hoechst total cell count ratio (hAMSC donor 2 [2]): 1.26 ± 0.26
transgenic luciferase activity (hAMSC donor 1 [3]): 2.92 ± 1.6
transgenic luciferase activity (hAMSC donor 2 [4]): 1.44 ± 0.21
transfection efficiency (hAMSC donor 1 [5]): 1.59 ± 0.14
transfection efficiency (hAMSC donor 2 [6]): 1.33 ± 0.14

Clc1cccc(Cl)c1NC1=NCCN1 [Clonidine hydrochloride]
Hoechst total cell count ratio (hAMSC donor 1 [1]): 1.25 ± 0.076
Hoechst total cell count ratio (hAMSC donor 2 [2]): 1.05 ± 0.076
transgenic luciferase activity (hAMSC donor 1 [3]): 2.23 ± 0.46
transgenic luciferase activity (hAMSC donor 2 [4]): 1.74 ± 0.61
transfection efficiency (hAMSC donor 1 [5]): 1.63 ± 0.42
transfection efficiency (hAMSC donor 2 [6]): 1.37 ± 0.22

CCc1cc(C(N)=S)ccn1 [Ethionamide]
Hoechst total cell count ratio (hAMSC donor 1 [1]): 0.999 ± 0.099
Hoechst total cell count ratio (hAMSC donor 2 [2]): 1.18 ± 0.26
transgenic luciferase activity (hAMSC donor 1 [3]): 0.968 ± 0.5
transgenic luciferase activity (hAMSC donor 2 [4]): 1.04 ± 0.37
transfection efficiency (hAMSC donor 1 [5]): 1.43 ± 0.14
transfection efficiency (hAMSC donor 2 [6]): 0.954 ± 0.036

COc1ccc2[nH]c([S@@+]([O-])Cc3ncc(C)c(OC)c3C)nc2c1 [Esomeprazole magnesium]
Hoechst total cell count ratio (hAMSC donor 1 [1]): 1.9 ± 0.51
Hoechst total cell count ratio (hAMSC donor 2 [2]): 1.08 ± 0.068
transgenic luciferase activity (hAMSC donor 1 [3]): 1.12 ± 0.46
transgenic luciferase activity (hAMSC donor 2 [4]): 0.863 ± 0.31
transfection efficiency (hAMSC donor 1 [5]): 1.01 ± 0.23
transfection efficiency (hAMSC donor 2 [6]): 0.726 ± 0.043

CCC[C@@H]1C[C@@H](C(=O)N[C@@H]([C@H]2O[C@H](SC)[C@H](O)[C@@H](O)[C@H]2O)[C@@H](C)O)N(C)C1 [Lincomycin hydrochloride]
Hoechst total cell count ratio (hAMSC donor 1 [1]): 1.07 ± 0.15
Hoechst total cell count ratio (hAMSC donor 2 [2]): 0.915 ± 0.062
transgenic luciferase activity (hAMSC donor 1 [3]): 1.38 ± 0.58
transgenic luciferase activity (hAMSC donor 2 [4]): 0.383 ± 0.17
transfection efficiency (hAMSC donor 1 [5]): 0.887 ± 0.072
transfection efficiency (hAMSC donor 2 [6]): 1.47 ± 0.2

CCCc1nc2c(C)cc(-c3nc4ccccc4n3C)cc2n1Cc1ccc(-c2ccccc2C(=O)O)cc1 [Telmisartan]
Hoechst total cell count ratio (hAMSC donor 1 [1]): 1.27 ± 0.17
Hoechst total cell count ratio (hAMSC donor 2 [2]): 1.15 ± 0.15
transgenic luciferase activity (hAMSC donor 1 [3]): 0.774 ± 0.029
transgenic luciferase activity (hAMSC donor 2 [4]): 0.923 ± 0.051
transfection efficiency (hAMSC donor 1 [5]): 1.07 ± 0.17
transfection efficiency (hAMSC donor 2 [6]): 0.858 ± 0.035

N[C@@H](Cc1cc(I)c(Oc2ccc(O)c(I)c2)c(I)c1)C(=O)O [3,5,3'-Triiodothyronine]
Hoechst total cell count ratio (hAMSC donor 1 [1]): 0.82 ± 0.11
Hoechst total cell count ratio (hAMSC donor 2 [2]): 1.2 ± 0.21
transgenic luciferase activity (hAMSC donor 1 [3]): 1.96 ± 0.24
transgenic luciferase activity (hAMSC donor 2 [4]): 2.39 ± 0.7
transfection efficiency (hAMSC donor 1 [5]): 1.9 ± 0.22
transfection efficiency (hAMSC donor 2 [6]): 1.66 ± 0.33

CC(CCc1ccccc1)NCC(O)c1ccc(O)c(C(N)=O)c1 (centres undefined) [Labetalol hydrochloride]
Hoechst total cell count ratio (hAMSC donor 1 [1]): 1.23 ± 0.17
Hoechst total cell count ratio (hAMSC donor 2 [2]): 1.64 ± 0.21
transgenic luciferase activity (hAMSC donor 1 [3]): 1.28 ± 0.099
transgenic luciferase activity (hAMSC donor 2 [4]): 0.608 ± 0.076
transfection efficiency (hAMSC donor 1 [5]): 1.04 ± 0.46
transfection efficiency (hAMSC donor 2 [6]): 0.791 ± 0.11

CCCN[C@H]1CCc2nc(N)sc2C1 [Pramipexole]
Hoechst total cell count ratio (hAMSC donor 1 [1]): 1.31 ± 0.03
Hoechst total cell count ratio (hAMSC donor 2 [2]): 1.2 ± 0.12
transgenic luciferase activity (hAMSC donor 1 [3]): 0.435 ± 0.44
transgenic luciferase activity (hAMSC donor 2 [4]): 0.646 ± 0.2
transfection efficiency (hAMSC donor 1 [5]): 0.943 ± 0.079
transfection efficiency (hAMSC donor 2 [6]): 0.94 ± 0.18

COc1cc(N)c(Cl)cc1C(=O)NC1CCN(CCCOc2ccc(F)cc2)CC1OC (centres undefined) [Cisapride hydrate]
Hoechst total cell count ratio (hAMSC donor 1 [1]): 1.23 ± 0.049
Hoechst total cell count ratio (hAMSC donor 2 [2]): 1.45 ± 0.14
transgenic luciferase activity (hAMSC donor 1 [3]): 0.949 ± 0.095
transgenic luciferase activity (hAMSC donor 2 [4]): 0.805 ± 0.069
transfection efficiency (hAMSC donor 1 [5]): 1.41 ± 0.33
transfection efficiency (hAMSC donor 2 [6]): 2.87 ± 1

CC(=O)Nc1nnc(S(N)(=O)=O)s1 [Acetazolamide]
Hoechst total cell count ratio (hAMSC donor 1 [1]): 1.48 ± 0.047
Hoechst total cell count ratio (hAMSC donor 2 [2]): 1.15 ± 0.046
transgenic luciferase activity (hAMSC donor 1 [3]): 0.623 ± 0.34
transgenic luciferase activity (hAMSC donor 2 [4]): 0.381 ± 0.028
transfection efficiency (hAMSC donor 1 [5]): 0.852 ± 0.1
transfection efficiency (hAMSC donor 2 [6]): 1.22 ± 0.35

OCCN(CCO)c1nc(N2CCCCC2)c2nc(N(CCO)CCO)nc(N3CCCCC3)c2n1 [Dipyridamole]
Hoechst total cell count ratio (hAMSC donor 1 [1]): 1.19 ± 0.071
Hoechst total cell count ratio (hAMSC donor 2 [2]): 1.21 ± 0.3
transgenic luciferase activity (hAMSC donor 1 [3]): 4.01 ± 2.9
transgenic luciferase activity (hAMSC donor 2 [4]): 1.38 ± 0.41
transfection efficiency (hAMSC donor 1 [5]): 1.06 ± 0.19
transfection efficiency (hAMSC donor 2 [6]): 1.97 ± 0.37

CCOC(=O)C1=C(COCCN)NC(C)=C(C(=O)OC)C1c1ccccc1Cl (centres undefined) [Amlodipine]
Hoechst total cell count ratio (hAMSC donor 1 [1]): 0.073 ± 0.015
Hoechst total cell count ratio (hAMSC donor 2 [2]): 0.066 ± 0.032
transgenic luciferase activity (hAMSC donor 1 [3]): 0.00173 ± 0.0013
transgenic luciferase activity (hAMSC donor 2 [4]): 0.000351 ± 0.00015
transfection efficiency (hAMSC donor 1 [5]): 0.848 ± 0.32
transfection efficiency (hAMSC donor 2 [6]): 0.0452 ± 0.039

Cc1cccc(CN2CCN(C(c3ccccc3)c3ccc(Cl)cc3)CC2)c1 (centres undefined) [Meclizine hydrochloride]
Hoechst total cell count ratio (hAMSC donor 1 [1]): 1.44 ± 0.2
Hoechst total cell count ratio (hAMSC donor 2 [2]): 1.11 ± 0.12
transgenic luciferase activity (hAMSC donor 1 [3]): 0.052 ± 0.047
transgenic luciferase activity (hAMSC donor 2 [4]): 0.0589 ± 0.021
transfection efficiency (hAMSC donor 1 [5]): 0.527 ± 0.098
transfection efficiency (hAMSC donor 2 [6]): 0.381 ± 0.11

O=C1N[C@H](C(=O)O)CS1 [Procysteine]
Hoechst total cell count ratio (hAMSC donor 1 [1]): 1.46 ± 0.13
Hoechst total cell count ratio (hAMSC donor 2 [2]): 1.11 ± 0.079
transgenic luciferase activity (hAMSC donor 1 [3]): 3.54 ± 5
transgenic luciferase activity (hAMSC donor 2 [4]): 0.525 ± 0.093
transfection efficiency (hAMSC donor 1 [5]): 1.24 ± 0.15
transfection efficiency (hAMSC donor 2 [6]): 1.07 ± 0.18

CNCC[C@@H](Oc1ccccc1C)c1ccccc1 [Atomoxetine hydrochloride]
Hoechst total cell count ratio (hAMSC donor 1 [1]): 1.09 ± 0.12
Hoechst total cell count ratio (hAMSC donor 2 [2]): 0.88 ± 0.068
transgenic luciferase activity (hAMSC donor 1 [3]): 1.58 ± 1.5
transgenic luciferase activity (hAMSC donor 2 [4]): 0.82 ± 0.13
transfection efficiency (hAMSC donor 1 [5]): 1.33 ± 0.19
transfection efficiency (hAMSC donor 2 [6]): 1.25 ± 0.15

Cc1ncc([N+](=O)[O-])n1CC(C)O (centres undefined) [Secnidazole]
Hoechst total cell count ratio (hAMSC donor 1 [1]): 1.22 ± 0.083
Hoechst total cell count ratio (hAMSC donor 2 [2]): 1.48 ± 0.3
transgenic luciferase activity (hAMSC donor 1 [3]): 0.895 ± 0.22
transgenic luciferase activity (hAMSC donor 2 [4]): 0.402 ± 0.064
transfection efficiency (hAMSC donor 1 [5]): 0.706 ± 0.13
transfection efficiency (hAMSC donor 2 [6]): 0.946 ± 0.074
